{"source": "paper PMC12136788", "binders": {"B1": {"name": "chr9:50413139:50413140:+_ENSMUSG00000039016_ENSMUST00000044051|mus_mus|FALSE|FALSE (ssRNA)", "RNA": "GGGAGUUCUACAGUCCGACGAUCGAUCUGGGCAAACCGACCGGUGAUGGCAAGAGUAGUGUCAAUGAAGCGAUCCACACAGCUAGAGAGGCAGUUUUCAGUGCGGGAGUCUAGCCGACUUCCUGGCUUCUCCACACACUUAUCCAACAGAGGAUUGAGCAUCA"}, "B2": {"name": "chr1:52246310:52246311:-_ENSMUSG00000026103_ENSMUST00000114513|mus_mus|FALSE|FALSE (ssRNA)", "RNA": "GGGAGUUCUACAGUCCGACGAUCGCCCAUCUUGUCAAGAGGAGGAGACCAACACAUCAUGCCCAUGACGUUGGGGACAACUAAAAGAAUACCCCCAGCAACUCCAGAUUUUGCAGGAAGACCAACAUGGAACGCAAACUGCCCCAACAGAGGAUUGAGCAUCA"}, "B3": {"name": "chr12:42180722:42180723:-_ENSMUSG00000036295_ENSMUST00000043884|mus_hu|mus_mus_mus_hu_True|8_88 (ssRNA)", "RNA": "GGGAGUUCUACAGUCCGACGAUCCUGUAGGAGAAGAAUCUGUGUGUCGGCAGGCAAUCUGGCUGGGAAAGUUAAAAGACCUAAAUCAUUACAAUCCACUGUAGAUGCUUCCAUAUAAAUGGAUCUGGGGGUAAACCAAGGCCUCAACAGAGGAUUGAGCAUCA"}, "B4": {"name": "chr11:70698419:70698420:+_ENSMUSG00000020817_ENSMUST00000076270|mus_mus|FALSE|FALSE (ssRNA)", "RNA": "GGGAGUUCUACAGUCCGACGAUCUUUCAUUAUAGCCUGAAGUGAAGCAACUUCUUCUCUCCAUUGCCUUUUAACUUCAUCUAUAGCUUCUUGCUUAGUAUUCUCAGAGACUGUGGCAAUUGCCUUAAUGUUCUCCAUCUCUGCCAACAGAGGAUUGAGCAUCA"}, "B5": {"name": "79877754_79877874_3371_3pUTR_ENSG00000197063_ENST00000357736|human|control|control (ssRNA)", "RNA": "GGGAGUUCUACAGUCCGACGAUCGAGGUAUGGCCUCGAAACUCCAGAAGCCUCUUCUGCCAACGCACCGAGGACCUGCACCUCCCAUUCAGCACGCGUCGACCCUUACACCCUCCUCUUCCACACUCCCUUCGCCUCCAGGUCCAACAGAGGAUUGAGCAUCA"}, "B6": {"name": "chr7:141441981:141441982:+_ENSG00000106028_ENST00000265304|hu_mus|hu_hu_hu_mus_False|1_48 (ssRNA)", "RNA": "GGGAGUUCUACAGUCCGACGAUCCUCAUGUCUUACAAACUGACGAAAUACCUGUAACACAGGUCUUCGAAACAUGGCUUCUGUUUUCUUUUCUUACUAAUCUUUAGGCUUUUCCUAAAGGAAAGAAAGAAAAGAGAAGCCCAGCAACAGAGGAUUGAGCAUCA"}, "B7": {"name": "chr3:122252165:122252166:-_ENSMUSG00000039735_ENSMUST00000162409|mus_hu|FALSE|FALSE (ssRNA)", "RNA": "GGGAGUUCUACAGUCCGACGAUCAAUGCGCUGCUGUAGUUUUUUACGUCUCUGUUCUGGUGGCAGAUGACUGAAAUCUUCUAGUGCUGGGCCCUUUGGCUUCUUUCCAAAGAGCCACAAUUUGCCCUUGGCCUUUCCUACUGUCAACAGAGGAUUGAGCAUCA"}, "B8": {"name": "chr13:47345604:47345605:-_ENSG00000139684_ENST00000378720|perfect_dup|motif|central (ssRNA)", "RNA": "GGGAGUUCUACAGUCCGACGAUCCAGGUACUUAGCAUGGUGUCUGAUGUGGUCAGCGAUGAAAGUUGCAAUGAAGUAGUAGCGGUGAUCAUAACCCUCUUGUAGUCUAAACACAACAGGGAUUUUCUUCUCUGUGCAGGCAGCCAACAGAGGAUUGAGCAUCA"}, "B9": {"name": "chr7:108137184:108137185:-_ENSG00000135241_ENST00000257694|hu_hu|motif|central (ssRNA)", "RNA": "GGGAGUUCUACAGUCCGACGAUCUCGAUAAAGUUCCUCACAUUCAUCCAAGGGCAUAUGAAACAACCCCAACAUGAAAGCGGAUAUGGCACCUGUGCUUACACCACAAAUGUAAUCAAAGAGCUGAUGAACUGGCUUCUGAGUCAACAGAGGAUUGAGCAUCA"}, "B10": {"name": "chr5:56189439:56189440:+_ENSG00000095015_ENST00000399503|hu_hu|motif|central (ssRNA)", "RNA": "GGGAGUUCUACAGUCCGACGAUCAAAGACUGGAUGCUUCAGUAGCUCUCUUGAUGGAGGUCUGUCCUGAGGUUGAAGUUCGGAACAACGAAGAGCCACAUCUCGUAAACCAGGAGACAAAUGUGAAGGGAUCGAUGGAGCAGUCAACAGAGGAUUGAGCAUCA"}, "B11": {"name": "chr9:24234919:24234920:-_ENSMUSG00000043067_ENSMUST00000142064|mus_hu|FALSE|FALSE (ssRNA)", "RNA": "GGGAGUUCUACAGUCCGACGAUCGUAAACCAGCUCUCCAUGAUCAAACUGGUGUUUUCUUACAUGUGUCUGUUGUUUAGCUAAGACACCCCACAUAUCACUAAUAAUCUUUCUAACAAUAGCAACAAACACUACAAGAACAACCAACAGAGGAUUGAGCAUCA"}, "B12": {"name": "chr1:235506033:235506034:+_ENSG00000152904_ENST00000391855|hu_hu|FALSE|FALSE (ssRNA)", "RNA": "GGGAGUUCUACAGUCCGACGAUCUUAACAUUAUUCAUUUUCUUCUUUGAACAUCUUACUUAAGUGUUUUACUAAGGCUACUAGCUCAGGGUUCCCACCACGUGCAUCAAUCUGUUUAUAGGCUUUAGCUUCAAGCUCUUUAAGCAACAGAGGAUUGAGCAUCA"}, "B13": {"name": "chr1:184247048:184247049:-_ENSMUSG00000047539_ENSMUST00000051431|mus_mus|motif|central (ssRNA)", "RNA": "GGGAGUUCUACAGUCCGACGAUCCUGGAGCUAGAGCCAUAUUCCAAUCUACUUCCUAUUCCGAAGUCGUUUGGAUUUCCGGAGAGAGUCUAUGGCUUCCGUUGCCUUCCGUCGUUUCCGAGGGGACUCCUCACUCUGCCCAGACAACAGAGGAUUGAGCAUCA"}, "B14": {"name": "chr2:71371598:71371599:+_ENSG00000124383_ENST00000244230|hu_hu|motif|central (ssRNA)", "RNA": "GGGAGUUCUACAGUCCGACGAUCAAAGUGGAAGUUUGAGAGGGCAUCCAAUUUUAAGAAGAGGGAAUCCAUCAUCUUCUGAAUUUCGGCAUGUUCUGGAUUUUCUUCUUCUGCUGUUUUUUGCUGGUUGAGUUUGAUGUACUCCAACAGAGGAUUGAGCAUCA"}, "B15": {"name": "130144383_130144503_4556_CDS_ENSMUSG00000030779_ENSMUST00000052135|mouse|control|control (ssRNA)", "RNA": "GGGAGUUCUACAGUCCGACGAUCGUCCUUGGCUCUGCCCUUCUCACUGGACGCACUGCCCUUUGAGCUCCUGAGCUCGUGCUGCAUCAGCUCGUGGCUCGCCUCCUUGGGAAGCUUCUGCAGUUUCUCGGGCUGCUCGCUUUCCAACAGAGGAUUGAGCAUCA"}, "B16": {"name": "chr12:42180722:42180723:-_ENSMUSG00000036295_ENSMUST00000043884|mus_hu|mus_mus_mus_hu_True|38_48 (ssRNA)", "RNA": "B3 RNA with C47U, G48A, A51U, A93G, A102C, G129U"}, "B17": {"name": "chr6:67234166:67234167:+_ENSMUSG00000036371_ENSMUST00000042990|mus_mus|FALSE|FALSE (ssRNA)", "RNA": "GGGAGUUCUACAGUCCGACGAUCUGAAGAAUGCAUAUUCUCUGAAAAUUAUGAAAACAUCCCUGCUACCAAUACAUUUCUAAAUACAAAACUGACUAACAUAUUUUGUUACUUCUGUGUAGCUAGAGAAGUUCGUUUUCAAAACAACAGAGGAUUGAGCAUCA"}, "B18": {"name": "44721363_44733459_1353_CDS_ENSG00000105953_ENST00000222673|human|control|control (ssRNA)", "RNA": "GGGAGUUCUACAGUCCGACGAUCGGAGCGGGCCAUCCGAGGGUCGGUGGUGAAGCCGAUCUGGUUGUUGACGACCACGUGCACGGUGCCAUGAGUUGUGUAGGAUGGCAGGUCGCUGAGGUGGAAGGUCUCGUACACAAUGCCCAACAGAGGAUUGAGCAUCA"}, "B19": {"name": "chr8:29961843:29961844:+_ENSG00000104660_ENST00000321250|hu_hu|FALSE|FALSE (ssRNA)", "RNA": "GGGAGUUCUACAGUCCGACGAUCGGCAAGUUCCUUACAAGCGUUACUCAUAGCAUCUGUAUCAUCCACUAAUCUUCUUGCUAUGCAGUAUGGAAUAGGUGAAAGGAUGUAAAAAAAUAGAACAAAGAGGGGCCAGUAUUUGUUCAACAGAGGAUUGAGCAUCA"}, "B20": {"name": "chr1:44183430:44183431:+_ENSMUSG00000041684_ENSMUST00000114709|mus_hu|FALSE|FALSE (ssRNA)", "RNA": "GGGAGUUCUACAGUCCGACGAUCUUUAUAGAUUGAGGUCGCCUGGUUGAGAAAGGCAUAGUCCGAACAGAUGGCAUAAAUUUUUUCCCGUGUAUGAGUCACUGGACAACUCCAUGGAUAAUGACCAUCUCCUUUGGGACCCAACAACAGAGGAUUGAGCAUCA"}, "B21": {"name": "chr1:231413285:231413286:+_ENSG00000116906_ENST00000366647|hu_hu|FALSE|FALSE (ssRNA)", "RNA": "GGGAGUUCUACAGUCCGACGAUCGUUUGUUGUAAUGAGUCCUUCGAUGAGAGUAAUUACGUGACCGAAUUUUCCAUAACUAUUUGUUGAUUAUUAAAGUUUUGCAGUGGCUGGUUUUCCUAUUGGUGUCUUACAACCAAGCAUCAACAGAGGAUUGAGCAUCA"}, "B22": {"name": "chr1:90180492:90180493:+_ENSG00000171488_ENST00000370454|hu_mus|motif|central (ssRNA)", "RNA": "GGGAGUUCUACAGUCCGACGAUCUUUCAUCUGCUCCCGGACAUCUGAGGGCAGAGUCUCAAACAGAGCAUCUUCCACAACGGGCCCGGCUCGCUUCAGAGCCCGGCAGUCUCCCAGCUCGGGAGGGAGGACUUCAAAGUGAUUCAACAGAGGAUUGAGCAUCA"}}, "note": "Numbering of substitutions follows the chain as printed. The list shows a part of the results."}
{"target": "T1, UNK ZnF1-3 (human, UniProt Q9C0B0 31-174)", "T1 sequence": "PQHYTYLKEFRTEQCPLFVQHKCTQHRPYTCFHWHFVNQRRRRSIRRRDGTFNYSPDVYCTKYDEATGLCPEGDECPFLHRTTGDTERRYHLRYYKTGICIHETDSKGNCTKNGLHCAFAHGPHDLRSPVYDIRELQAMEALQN", "assay": "nsRBNS (natural sequence RNA bind-n-seq); RBNS binding buffer (assumed for nsRBNS): 25 mM Tris pH 7.5, 150 mM KCl, 3 mM MgCl2, 0.01% Triton X-100, 500 ug/ml BSA, 20 U/ml SUPERase-In, 4 C; UNK is unkempt and MSI1 is Musashi-1; names of the RNAs are library labels; protein concentration not given here; high values mean tight binding", "units": {"binding signal": "enrichment R"}}
{"binder": "B1", "binding signal": 1.86}
{"binder": "B2", "binding signal": 1.31}
{"binder": "B3", "binding signal": 1.17}
{"binder": "B4", "binding signal": 0.444}
{"binder": "B5", "binding signal": 1.15}
{"binder": "B6", "binding signal": 0.31}
{"binder": "B7", "binding signal": 0.449}
{"binder": "B8", "binding signal": 1.24}
{"binder": "B9", "binding signal": 1.15}
{"binder": "B10", "binding signal": 1.19}
{"binder": "B11", "binding signal": 1.21}
{"binder": "B12", "binding signal": 0.715}
{"binder": "B13", "binding signal": 0.741}
{"binder": "B14", "binding signal": 1.09}
{"binder": "B15", "binding signal": 0.437}
{"binder": "B16", "binding signal": 1.32}
{"binder": "B17", "binding signal": 0.623}
{"binder": "B18", "binding signal": 0.487}
{"binder": "B19", "binding signal": 1.4}
{"binder": "B20", "binding signal": 1.36}
{"binder": "B21", "binding signal": 0.746}
{"binder": "B22", "binding signal": 1.05}
